Results: PubChem BioAssay AID463173 (ICCB-Longwood Screening Facility, Harvard Medical School, 2010)
The whole screen tested about 52,000 compounds, of which about 4,300 (8.3%) were called active. Rule as the data show it: active = survival mostly below about 52% (no sharp cut-off); inactive = mostly above about 56%. The list shows a part of the results.

These molecules were tested on DeltatarO mutant (assay: growth inhibition of S. aureus wild type versus tarO mutant, primary screen, teichoic acid synthesis inhibitors, RN4220, OD600 (AID 463173)). Details: OD600, 18 h, hits give low values, screened at 18.75 µg/mL (by protocol).

Row | Compound | survival
1 | CC(C)Cc1ccc(S(=O)(=O)Nc2ccc3[nH]c(=O)[nH]c3c2)cc1 | inactive: 87%
2 | Nc1nc(NC(=S)Nc2ccccc2)cc(=O)[nH]1 | inactive: 62%
3 | COc1ccccc1CNC(=O)Cn1c(=O)ccc2cc(S(=O)(=O)N3CCC(C)CC3)ccc21 | inactive: 83%
4 | O=S(=O)(c1ccc(Cl)cc1)c1nc(-c2ccccc2Br)oc1N1CCOCC1 | inactive: 59%
5 | COC(=O)c1c(C)oc2c1cc(NS(=O)(=O)c1c(C)cc(C)cc1C)c1ccccc12 | inactive: 71%
6 | O=c1[nH]c2ccccc2c(O)c1C1=NS(=O)(=O)c2ccccc2N1 | inactive: 75%
7 | O=C(NC1(C(F)(F)F)NC(=O)N(CCc2ccccc2)C1=O)c1ccccc1F (centres undefined) | inactive: 76%
8 | O=C(O)C1CCCN1C(=O)/C=C/c1ccco1 (centres undefined) | inactive: 98%
9 | Cc1ccc(NC(=O)CCc2c(C)nn(-c3ccc(N4CCCCC4)nn3)c2C)cc1F | inactive: 124%
10 | COc1cccc(CSc2nc3cc(OC)c(OC)cc3c3nc(CCn4nc(C)cc4C)nn23)c1 | active: 60%
11 | CCOc1ccc2nc(N(Cc3cccnc3)C(=O)c3ccc4c(c3)OCCO4)sc2c1 | inactive: 84%
12 | COc1cc(NC(=O)C(NC(=O)C2CCC(C)CC2)C(C)C)cc(OC)c1OC (centres undefined) | inactive: 83%
13 | COc1ccc(Cl)cc1NS(=O)(=O)c1c(C)nc2scc(C)n2c1=O | inactive: 84%
14 | COCCn1c(CNC(=O)c2cc([N+](=O)[O-])ccc2Cl)nc2cccnc21 | inactive: 84%
15 | COc1ccc2nc(SCc3nnc(-c4ccccc4)o3)c(C#N)cc2c1 | inactive: 71%
16 | Cn1c(=O)c2c(nc(NCCc3ccccc3)n2Cc2cccc(Br)c2)n(C)c1=O | inactive: 50%
17 | COc1ccc2c(c1)CCc1c(C(=O)Nc3c(C)nn(Cc4ccccc4Cl)c3C)noc1-2 | inactive: 109%
18 | O=c1n(Cc2ccc(F)cc2Cl)c2ccccc2c2nc(-c3ccccc3)nn12 | inactive: 125%
19 | Cc1ccc(CCNC(=O)c2nnc(Cc3cccc(F)c3)o2)cc1 | inactive: 86%
20 | CC1Cc2ccccc2N1S(=O)(=O)c1nnc(NC(=O)c2ccccc2Br)s1 (centres undefined) | active: 23%
21 | COc1ccc(-c2cn3nc(N4CCCC(C(=O)Nc5ccc(Cl)cc5C)C4)sc3n2)cc1 (centres undefined) | inactive: 85%
22 | COc1ccc(S(=O)(=O)NCC(c2cccs2)S(=O)(=O)c2ccc(C)cc2)cc1F (centres undefined) | inactive: 98%
23 | Cc1[nH]c2ccc(F)cc2c1CCNC(=O)c1cc2cc(Cl)ccc2oc1=O | inactive: 52%

Row | Compound | survival
24 | CC(C)Oc1ccc(C(=O)Nc2ccc3oc(-c4ccncc4)nc3c2)cc1 | inactive: 129%
25 | CC(C)(C)c1nc(NCC2CCCO2)c2nnn(Cc3ccccc3Cl)c2n1 (centres undefined) | inactive: 102%
26 | Cc1nnc(NC(=O)C(C)N2CCCC2)s1 (centres undefined) | inactive: 97%
27 | Cc1c(CNC2CCCCCC2)c(C(=O)O)c(C)n1Cc1c(F)cccc1Cl | inactive: 78%
28 | COc1ccc(C(=O)Nc2onc3c2CCCC3)cc1 | inactive: 71%
29 | COc1ccc(NC(=O)Cn2cnc3c(nc4n3CCCCC4)c2=O)c(OC)c1 | inactive: 84%
30 | COCCCn1c(=N)c(C(=O)NC2CCCCC2)cc2c(=O)n3ccccc3nc21 | inactive: 78%
31 | CCOC(=O)c1ccc(N2C(=O)c3n[nH]c(C)c3C2c2ccc(O)c(OC)c2)cc1 (centres undefined) | inactive: 115%
32 | COc1ccc(N2CCN(C(=O)Cn3cnc4sc(C)c(S(=O)(=O)N5CCC(C)CC5)c4c3=O)CC2)cc1 | inactive: 142%
33 | Cc1ccc(-n2ncc(C(=O)N3CCN(c4ccccn4)CC3)c2C2CCN(C(=O)OC(C)(C)C)CC2)cc1C | inactive: 72%
34 | Cc1cc(=O)oc2c3c(ccc12)OCN(Cc1ccccc1Cl)C3 | inactive: 75%
35 | Cc1cccc(CS(=O)(=O)CC2Nc3ccc(C(=O)NCc4ccccc4)cc3NC2=O)c1 (centres undefined) | inactive: 79%
36 | CCOC(=O)c1ccccc1NC(=O)Cc1c(C(=O)O)c(C)cn1C | active: 17%
37 | COc1ccc(S(=O)(=O)NCc2cccn2Cc2cccc(C)c2)cc1OC | inactive: 83%
38 | CCOC(=O)c1c(-c2ccccc2)oc2ccc(NS(=O)(=O)c3ccccc3)cc12 | active: 35%
39 | CCCCc1nn2c(=O)cc(COC(=O)c3ccccc3NC(=O)C3CCCCC3)nc2s1 | inactive: 71%
40 | CCN(C(=O)CSc1nnc(C)n2c1cc1occc12)c1ccccc1 | inactive: 104%
41 | CCOc1ccc(NC(=O)c2cc3c(=O)n4cccc(C)c4nc3s2)cc1 | inactive: 51%
42 | Cc1cc([N+](=O)[O-])ccc1NC(=O)CSc1nccn1C | inactive: 138%
43 | COc1ccc(CNC(=O)c2cnc(N3CCCC3)nc2C)cc1 | inactive: 71%
44 | Cc1cccc(NC(=O)CSc2nc(=O)n(CCN3CCOCC3)c3c2CCC3)c1C | inactive: 87%
45 | CCCC(=O)NCc1nc2cccnc2n1Cc1ccc(F)cc1 | inactive: 77%
46 | Cc1cccc(Cn2nnc3c(=O)[nH]c(C4CCN(C(=O)c5ccccc5F)CC4)nc32)c1 | inactive: 46%

Row | Compound | survival
47 | Cc1ccc(NC(=O)Cn2c(=O)n(Cc3ccc4c(c3)OCO4)c(=O)c3ccc(C(=O)NC4CCCCC4)cc32)cc1 | inactive: 79%
48 | CCOC(=O)c1ccc(NC(=O)Cc2coc3cc(C)cc(C)c23)cc1 | inactive: 60%
49 | Cc1cccc2sc(N(Cc3cccnc3)C(=O)C3CCCCC3)nc12 | inactive: 83%
50 | COc1ccc(S(=O)(=O)c2cn(CC(=O)Nc3ccccc3)c3ccc(Cl)cc3c2=O)cc1 | inactive: 82%
51 | COc1ccc(CSc2nc3ccncc3n2Cc2nc(-c3ccc(OC)c(OC)c3)oc2C)cc1 | inactive: 56%
52 | COc1cccc(NC(=O)N2C3CCC2CC(O)(c2cccnc2)C3)c1 (centres undefined) | inactive: 77%
53 | COc1ccc(-c2c(C)c3ccc(O)c(CN4CCN(C)CC4)c3oc2=O)cc1OC | inactive: 80%
54 | COc1ccc2c(c1)c1c(c(=O)n(-c3cccc(Cl)c3)c(=O)n1C)n2C | inactive: 75%
55 | CCOC(=O)c1c(C)c(C(=O)NCCc2ccc(OC)cc2)c(C)n1CC | inactive: 101%
56 | CC(=O)c1c(C)n(-c2cccc(C)c2)c2ccc(OC(=O)COc3ccccc3)cc12 | inactive: 70%
57 | COc1cccc(-c2cc(C(=O)NCCc3ccc(C)cc3)[nH]n2)c1 | inactive: 104%
58 | Clc1nc(Cl)nc(NCCC2=CCCCC2)n1 | inactive: 126%
59 | CCOc1ccc(CNC(=O)Cn2nc(C)c3sc4ccccc4c3c2=O)cc1 | inactive: 113%
60 | COc1ccccc1CNC(=O)Nc1ccc2c(c1)N(C)C(=O)c1ccccc1S2 | inactive: 70%
61 | O=C(CSc1nc2c([nH]c3ccccc32)c(=O)n1-c1ccc(F)cc1)N1CCCCCC1 | inactive: 55%
62 | COc1ccc(Br)cc1CNC(=O)CCC(=O)N1CCSc2ccccc21 | active: 41%
63 | CN(C(=O)c1cccc(Nc2ccc(-c3ccc4c(c3)OCCO4)nn2)c1)C1CCCCC1 | inactive: 78%
64 | O=C(Cn1cc(SCc2cccc(C(F)(F)F)c2)c2ccccc21)N1CCCCCC1 | inactive: 90%
65 | CN1C(=O)C2CCCCN2c2ccc(C(=O)NCc3ccccc3Br)cc21 (centres undefined) | inactive: 57%
66 | COc1cc(NC(=O)CCc2c(C)nc3c(c(C)nn3-c3ccccc3)c2C)cc(OC)c1OC | inactive: 60%
67 | COc1cccc2cc(-c3nc(-c4cccs4)no3)c(=O)oc12 | inactive: 67%
68 | CCOC(=O)c1c(-c2ccc(C)cc2)csc1NC(=O)c1cc(=O)c2cc(C)c(C)cc2o1 | inactive: 62%
69 | Cc1ccc(NC(=O)C2CCN(c3nc4ccccc4[nH]3)CC2)cc1Cl | inactive: 94%

Row | Compound | survival
70 | NC(=O)c1cc(Cl)nc2ccccc12 | inactive: 81%
71 | O=C(NCc1cccs1)c1ccc(CSc2nc3ccncc3n2Cc2cccc(F)c2)cc1 | inactive: 63%
72 | CCc1nn(CC(=O)Nc2c(C)cc(C)cc2C)c(=O)c2cc3sccc3n12 | inactive: 128%
73 | C=Cc1ccc(Cn2c(=O)n(-c3ccccc3C)c(=O)c3c4c(sc32)CN(C(C)=O)CC4)cc1 | inactive: 72%
74 | Cc1ccc(N(C)S(=O)(=O)c2ccc3[nH]cc(C(=O)O)c(=O)c3c2)cc1C | inactive: 70%
75 | CC(=O)c1ccc(NC(=O)CSc2nc(-c3ccccc3F)nc3c2c(=O)n(C)c(=O)n3C)cc1 | inactive: 75%
76 | CCN(Cc1ccccc1)C(=O)Nc1ccc2c(c1)N(C)C(=O)c1ccccc1S2 | inactive: 87%
77 | Cc1ccc(C(=O)Nc2ccc3c(c2)N(C)C(=O)c2ccccc2S3)cc1F | inactive: 96%
78 | N#C/C(=C\c1ccccc1)c1nc(-c2cc3cc(Br)ccc3oc2=O)cs1 | inactive: 74%
79 | CCc1ccc(CNCc2c(C(=O)O)n(Cc3cccc(F)c3)c3cc(OC)ccc23)cc1 | inactive: 79%
80 | Cc1cccc(N(C)C(=O)c2cc(S(=O)(=O)N3CCCC3)cn2C)c1 | inactive: 82%
81 | O=C(Nc1ccccc1Br)C1CCCN(S(=O)(=O)c2cccc3nsnc23)C1 (centres undefined) | inactive: 77%
82 | Cn1ccnc1SC(=O)N1c2ccccc2Sc2ccccc21 | inactive: 77%
83 | COc1cccc(N2CCN(S(=O)(=O)c3ccc4[nH]c5c(c4c3)CCCC5)CC2)c1 | inactive: 84%
84 | O=C(NCCS(=O)(=O)N1CCN(c2ccccc2)CC1)C(c1ccccc1)c1ccccc1 | inactive: 91%
85 | O=C1CC(c2ccccc2)Cc2[nH]c(=O)c(C(=O)Nc3cccc(F)c3)cc21 (centres undefined) | inactive: 89%
86 | Cc1cccc(NC(=O)c2c(NC(=O)C(F)(F)F)sc3c2CCCCC3)c1 | active: -3%
87 | CCOC(=O)c1cccc(Nc2c3c(nc4ccccc24)CCC3)c1 | inactive: 68%
88 | Cc1ccc(N2CC(c3nc4ccccc4n3CCC3CCCCC3)CC2=O)cc1 (centres undefined) | inactive: 64%
89 | CCOc1ccc(C(CC(=O)O)N2Cc3ccccc3C2=O)cc1OC (centres undefined) | inactive: 96%
